From publication PMC4336329 (PLoS ONE, 2015)
Among all 310,000 compounds or so, about 14,000 (4.5%) showed an effect of 50% or more. The effect is printed as a negative number. The list shows a part of the results.

What follows are compounds tested against human ether-à-go-go-related gene (hERG) potassium channel (human, UniProt Q12809) (assay: primary screen, population patch clamp on CHO cells stably expressing hERG).
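Also: peak tail current of the secondary pulse compared with the same well before compound.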

Chain of human ether-à-go-go-related gene (hERG) potassium channel (Q12809 whole entry, looked up): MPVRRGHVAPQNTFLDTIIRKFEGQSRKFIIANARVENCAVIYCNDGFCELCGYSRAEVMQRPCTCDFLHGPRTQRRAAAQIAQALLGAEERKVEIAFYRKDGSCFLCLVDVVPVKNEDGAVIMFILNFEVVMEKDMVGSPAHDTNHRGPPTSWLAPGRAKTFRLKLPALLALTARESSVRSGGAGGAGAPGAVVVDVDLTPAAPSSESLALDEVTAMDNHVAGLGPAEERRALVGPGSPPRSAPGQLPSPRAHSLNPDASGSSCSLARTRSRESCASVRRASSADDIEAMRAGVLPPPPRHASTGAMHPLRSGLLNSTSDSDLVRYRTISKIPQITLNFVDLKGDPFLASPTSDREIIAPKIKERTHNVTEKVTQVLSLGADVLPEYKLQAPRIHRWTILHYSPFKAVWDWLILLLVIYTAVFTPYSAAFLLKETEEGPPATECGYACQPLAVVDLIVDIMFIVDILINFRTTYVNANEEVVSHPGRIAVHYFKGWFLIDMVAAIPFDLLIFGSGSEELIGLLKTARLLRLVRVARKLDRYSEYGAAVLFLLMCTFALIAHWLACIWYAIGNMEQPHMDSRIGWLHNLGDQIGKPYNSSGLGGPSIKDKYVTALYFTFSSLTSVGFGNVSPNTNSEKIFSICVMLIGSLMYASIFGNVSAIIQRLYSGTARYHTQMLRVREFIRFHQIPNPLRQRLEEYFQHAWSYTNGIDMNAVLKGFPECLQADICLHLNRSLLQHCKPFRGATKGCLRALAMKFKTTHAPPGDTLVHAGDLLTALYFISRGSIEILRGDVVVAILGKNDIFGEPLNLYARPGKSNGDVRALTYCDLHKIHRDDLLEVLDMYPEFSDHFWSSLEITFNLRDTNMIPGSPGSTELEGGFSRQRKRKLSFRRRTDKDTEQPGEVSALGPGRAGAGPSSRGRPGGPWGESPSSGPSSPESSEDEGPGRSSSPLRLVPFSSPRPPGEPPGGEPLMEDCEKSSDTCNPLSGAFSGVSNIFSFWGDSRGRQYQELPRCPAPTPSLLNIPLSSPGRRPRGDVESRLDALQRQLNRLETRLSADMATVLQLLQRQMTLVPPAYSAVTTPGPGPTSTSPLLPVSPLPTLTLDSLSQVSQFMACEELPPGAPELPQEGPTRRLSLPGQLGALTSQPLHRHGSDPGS

SMILES	hERG current change (%, negative = inhibition) at 10uM
CCOc1ccccc1CN1CCC(Oc2cccc(C(=O)NCCOC)c2)CC1	-30.8%
Cc1ccc2c(c1)c1c(c(=O)n(-c3ccccc3C)c(=O)n1CC(=O)NCC1CCCO1)n2C (stereo not drawn)	-38.2%
COC(=O)CNS(=O)(=O)c1ccc(Cc2ccc(S(=O)(=O)NCC(=O)OC)cc2)cc1	-18.4%
Cc1nc(NNC(=O)c2ccc([N+](=O)[O-])cc2)cc(-c2ccccc2)n1	-50.8%
COc1ccccc1NC(=O)c1nc[nH]c1C(=O)Nc1ccccc1OC	20%
C=C1N(C)c2cc([N+](=O)[O-])c(N)cc2C1(C)C	-29.3%
Cc1noc(NS(=O)(=O)c2ccc(NC(=O)C34CCC(CC3)C4)cc2)c1C	-9.55%
Cc1cccc(N(C)c2cc(C)nc3ncnn23)c1	6.34%
O=C(CCS(=O)(=O)c1ccc(Br)cc1)Nc1ccccn1	3.95%
CCOc1ccccc1NC(=O)c1cc2ccccc2oc1=O	20.2%
Cc1ccc(C(=O)N2CCC3(CC2)Oc2ccc(F)cc2C(=O)C32CC(c3ccccc3)=NO2)s1 (stereo not drawn)	22.4%
CCC(=O)Nc1ccc(C(=O)Nc2cccc(OC)c2)cc1	1.62%
CCSc1nnc(NC(=O)CCc2ccc(OC)cc2)s1	1.77%
O=C(CSc1nc2ccccc2[nH]1)NCCc1ccc(Cl)cc1	-20.9%
O=C(CSc1ccccc1)Nc1ccccc1N1CCOCC1	-24.2%
CC1=Nn2c(nnc2-c2ccccc2Cl)SC1	20.1%
COc1ccc(S(=O)(=O)Nc2c(C)cccc2C)cc1-n1cnnn1	3.66%
O=C(CN(C(=O)c1csnn1)c1cccc(C(F)(F)F)c1)NCCc1ccccc1	9.81%
O=C(COC(=O)CNS(=O)(=O)c1ccccc1)Nc1ncc(Cl)cc1Cl	-5.49%

SMILES	hERG current change (%, negative = inhibition) at 10uM
Cc1ccc(CNc2ccc3c(c2)nc(C)n3C)cc1	-21.9%
Cc1cc(C(=O)CSc2ccc(F)cc2)cc(C)c1O	-13.6%
COC(=O)c1ccccc1NC(=O)CN(C1CCCCC1)S(C)(=O)=O	-27.1%
COc1ccc(C(CNC(=O)C(C)(C)Oc2ccc(Cl)cc2)N2CCCCC2)cc1 (stereo not drawn)	-53.8%
CCOC(=O)c1cccc(NC(=O)CSc2nnc(C)n2CC2CCCO2)c1 (stereo not drawn)	-17.1%
CCOC(=O)c1cc(-c2ccccc2)sc1NC(=O)C(C)Sc1nnc(C)s1 (stereo not drawn)	15.5%
Cc1cccc(-c2nnn(C/C(N)=N/O)n2)c1	3.93%
Cc1ccc(C)c(Cn2c(C)nc3c(sc(=S)n3-c3ccccc3)c2=O)c1	-12.7%
O=C(c1ccccc1)n1ccc(-c2cccs2)n1	20.7%
COc1ccc(/C=N/NC(=O)CCOc2ccccc2C)cc1OC	-4.93%
CC(Sc1ccccn1)C(=O)Nc1ccc2c(c1)OCCO2 (stereo not drawn)	-8.95%
O=C(CN(C(=O)c1csnn1)c1cccc(Cl)c1)NC1CCCCC1	2.46%
Cc1ccccc1-c1nnc(SCC(=O)N(C)c2c(N)n(Cc3ccccc3)c(=O)[nH]c2=O)n1C	11.8%
COc1cc(/C=C/C(=O)O)cc(S(=O)(=O)N2CCc3ccccc32)c1OC	2.32%
O=C1NCCN/C1=C\C(=O)c1ccccc1	-3.43%
S=C(Nc1cccc(Cl)c1Cl)Nn1cnnc1	36.1%
CCC(Oc1ccc(C)c(C)c1)C(=O)O (stereo not drawn)	-0.808%
COc1ccc(C(=O)Oc2c(C)occc2=O)cc1OC	9.93%
CCn1c(SCc2cccc(C)c2)nnc1-c1ccccc1	-32.9%

SMILES	hERG current change (%, negative = inhibition) at 10uM
CCCCc1nc2cc(C(=O)N3CCNC(=O)C3)ccc2o1	17.5%
CCn1c(SCC(=O)N/N=C/c2ccncc2)nc2ccccc21	-13.3%
CCc1nnc(NC(=O)C2CCC(CNc3c(N4CCC(C)CC4)c(=O)c3=O)CC2)s1 (stereo not drawn)	28.4%
O=C(Nc1ccc(F)cc1)c1ccccc1Oc1ccc(C(F)(F)F)cc1[N+](=O)[O-]	-6.47%
CCCc1cc(=O)oc2cc(OCC(=O)NCc3cccs3)ccc12	-9.66%
COc1ccc(C(=O)On2c(-c3ccc(Br)cc3)nc3ccccc3c2=O)cc1	5.05%
Cc1onc(-c2ccccc2)c1C(=O)Nc1ccc(Cl)cn1	-1.56%
Cc1ccc2c(CN(C)Cc3ccc(OC(F)F)cc3)cc(=O)oc2c1C	-8.76%
Cn1c(=O)n(C)c2cc(C(=O)O)ccc21	-7.4%
O=C(Nc1cccc(-c2ccc(N3CCOCC3)nn2)c1)c1ccc(F)cc1F	5.71%
COCCN(C(=O)COC(=O)c1nc(Cl)ccc1Cl)c1c(N)n(Cc2ccccc2)c(=O)[nH]c1=O	20.3%
COc1ccc(CN2CCOCCOCCOCCOCC2)cc1	-36%
COc1ccc(N(CC(=O)NCc2ccco2)S(C)(=O)=O)cc1OC	4.34%
c1ccc2oc(-c3ccc(Nc4nc(N5CCCCC5)nc(N5CCOCC5)n4)cc3)nc2c1	-1.32%
Fc1ccc(NC(=S)Nc2cccnc2)c(F)c1F	20.1%
C/C(Cn1cnc([N+](=O)[O-])n1)=N\NC(=O)c1ccc(O)cc1O	31.5%
COc1ccc(C(=O)N/N=C/c2ccc3cccc(O)c3n2)cc1	-3.3%
CC(=C1C(=O)c2ccccc2C1=O)N1CCN(Cc2ccccc2)CC1	-26.6%
CS(=O)(=O)c1nc(S(=O)(=O)c2ccc(Cl)cc2)c(N2CCN(CCO)CC2)s1	-18.4%
